{"source": "patent US20160046690A1", "about": "(ACCELERON PHARMA, published 2016)", "binders": {"B1": {"name": "ActRIIB(L79D 25-131)-Fc (Fc fusion)", "chain": "ETRECIYYNANWELERTNQSGLERCEGEQDKRLHCYASWRNSSGTIELVKKGCWDDDFNCYDRQECVATEENPQVYFCCCEGNFCNERFTHLPEAGGPEVTYEPPPTG[human IgG1 Fc and a few adjoining residues omitted here]", "notes": "also called double-truncated variant ActRIIB(L79D 25-131)-Fc"}}, "test_in_all_cases": "surface plasmon resonance", "key": {"BMP6": {"target": "T1, BMP6 (Natural ligand is a disulfide-linked homodimer; one subunit is given.)", "T1 chain": "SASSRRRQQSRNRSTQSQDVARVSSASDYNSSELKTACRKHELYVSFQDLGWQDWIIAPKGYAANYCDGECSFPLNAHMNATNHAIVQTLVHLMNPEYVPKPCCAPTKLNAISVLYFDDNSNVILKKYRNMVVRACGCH"}, "Activin B": {"target": "T2, Activin B (Activin B is a disulfide-linked homodimer of the beta-B subunit; one subunit is given.)", "T2 chain": "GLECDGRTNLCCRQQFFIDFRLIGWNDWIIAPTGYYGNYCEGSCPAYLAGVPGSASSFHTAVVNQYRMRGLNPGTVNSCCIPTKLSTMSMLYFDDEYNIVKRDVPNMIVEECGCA"}, "GDF11": {"target": "T3, GDF11 (Natural ligand is a disulfide-linked homodimer; one subunit is given.)", "T3 construct": "also called BMP11", "T3 chain": "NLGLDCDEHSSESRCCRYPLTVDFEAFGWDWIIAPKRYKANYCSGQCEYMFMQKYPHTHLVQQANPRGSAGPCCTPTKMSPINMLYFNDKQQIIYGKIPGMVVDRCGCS"}, "BMP9": {"target": "T4, BMP9 (Natural ligand is a disulfide-linked homodimer; one subunit is given.)", "T4 chain": "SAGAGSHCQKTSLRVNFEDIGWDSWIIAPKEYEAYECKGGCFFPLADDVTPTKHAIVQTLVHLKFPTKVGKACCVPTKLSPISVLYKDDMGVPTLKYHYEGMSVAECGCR"}, "Activin A": {"target": "T5, Activin A", "T5 sequence (P08476 311-426, species assumed, looked up)": "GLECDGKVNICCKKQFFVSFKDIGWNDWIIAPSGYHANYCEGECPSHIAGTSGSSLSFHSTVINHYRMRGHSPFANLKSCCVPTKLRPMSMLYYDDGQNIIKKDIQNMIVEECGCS"}, "BMP10": {"target": "T6, BMP10 (Natural ligand is a disulfide-linked homodimer; one subunit is given.)", "T6 chain": "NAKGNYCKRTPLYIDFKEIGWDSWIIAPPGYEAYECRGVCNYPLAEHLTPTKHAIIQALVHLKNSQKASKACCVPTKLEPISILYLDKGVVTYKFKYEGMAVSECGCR"}, "GDF8": {"target": "T7, GDF8 (Natural ligand is a disulfide-linked homodimer; one subunit is given.)", "T7 construct": "also called myostatin"}}}
{"binder": "B1", "values": [{"measurement": "Kd", "setting": "BMP6", "value": 90, "unit": "pM"}, {"measurement": "koff", "setting": "BMP6", "value": 0.000546, "unit": "s⁻¹"}, {"measurement": "kon", "setting": "BMP6", "value": "6.05e+06", "unit": "M⁻¹ s⁻¹"}, {"measurement": "Kd", "setting": "Activin B", "value": 620, "unit": "pM"}, {"measurement": "koff", "setting": "Activin B", "value": 0.00219, "unit": "s⁻¹"}, {"measurement": "kon", "setting": "Activin B", "value": "3.52e+06", "unit": "M⁻¹ s⁻¹"}, {"measurement": "Kd", "setting": "GDF11", "value": 74, "unit": "pM"}, {"measurement": "koff", "setting": "GDF11", "value": 0.000256, "unit": "s⁻¹"}, {"measurement": "kon", "setting": "GDF11", "value": "3.46e+06", "unit": "M⁻¹ s⁻¹"}, {"measurement": "Kd", "setting": "BMP9", "value": 2700, "unit": "pM"}, {"measurement": "koff", "setting": "BMP9", "value": 0.0137, "unit": "s⁻¹"}, {"measurement": "kon", "setting": "BMP9", "value": "5.04e+06", "unit": "M⁻¹ s⁻¹"}, {"measurement": "Kd", "setting": "Activin A", "value": 23000, "unit": "pM"}, {"measurement": "koff", "setting": "Activin A", "value": 0.123, "unit": "s⁻¹"}, {"measurement": "kon", "setting": "Activin A", "value": "5.35e+06", "unit": "M⁻¹ s⁻¹"}, {"measurement": "Kd", "setting": "BMP10", "value": 87, "unit": "pM"}, {"measurement": "koff", "setting": "BMP10", "value": 0.00145, "unit": "s⁻¹"}, {"measurement": "kon", "setting": "BMP10", "value": "1.67e+07", "unit": "M⁻¹ s⁻¹"}, {"measurement": "Kd", "setting": "GDF8", "value": 200, "unit": "pM"}, {"measurement": "koff", "setting": "GDF8", "value": 0.000242, "unit": "s⁻¹"}, {"measurement": "kon", "setting": "GDF8", "value": "1.18e+06", "unit": "M⁻¹ s⁻¹"}]}
